According to article PMC6212790:
Some of the results follow. At the low end of the ranking the order means little.

Molecular target: T1, GST-Rok-C97-191 (UniProt O34857)
T1 sequence: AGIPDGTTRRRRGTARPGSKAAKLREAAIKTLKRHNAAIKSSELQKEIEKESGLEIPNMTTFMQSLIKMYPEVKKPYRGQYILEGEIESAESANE
Test: protein binding microarray;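 also: rank score from −0.5 (least bound) to 0.5 (best bound)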
Details: Rok is a gene silencer of Bacillus subtilis; high values mean tight binding; most listed sequences are background and not binding sites; double strand, one strand shown

Row | Sequence | binding signal
1 | AGCGATCA | 0.0712 E-score
2 | AATAGGCA | -0.25 E-score
3 | ATAGCGGG | -0.0312 E-score
4 | ATAGGGTG | 0.109 E-score
5 | GGCGGTAA | 0.0703 E-score
6 | ATATAACG | 0.271 E-score
7 | GCTGAGAC | -0.135 E-score
8 | GGTTGTAC | 0.145 E-score
9 | GAGGAATA | 0.0153 E-score
10 | AGAAGGTG | -0.0446 E-score
11 | ATGAAACG | -0.0262 E-score
12 | AAGTGCAT | -0.0284 E-score
13 | CACAGCGG | 0.0839 E-score
14 | CATCCTAC | 0.18 E-score
15 | AACGCAGC | 0.0817 E-score
16 | AATAAGAA | 0.162 E-score
17 | GCGACCAA | -0.012 E-score
18 | ACGTCAAC | 0.00643 E-score
19 | AGCGAACG | -0.215 E-score
20 | GGATCCGA | -0.011 E-score
21 | AAGCTGTG | -0.0915 E-score
22 | AATCTGCG | 0.0952 E-score
23 | ATTTAGGA | 0.0135 E-score
24 | AAGTACTA | 0.385 E-score
25 | AGCGAAAT | 0.119 E-score

Row | Sequence | binding signal
26 | GTATCAAA | 0.0823 E-score
27 | ATAGTAGA | 0.355 E-score
28 | AAGCCGCA | -0.221 E-score
29 | GACGGCCC | -0.0925 E-score
30 | CCGGTTAC | -0.037 E-score
31 | GCAACCAC | 0.0137 E-score
32 | CCCGGTGC | -0.331 E-score
33 | AAAGGCGC | -0.209 E-score
34 | AACGTAGT | 0.128 E-score
35 | ACGCTCTG | -0.00695 E-score
36 | ACGTTAGA | 0.212 E-score
37 | TATGGTGA | 0.088 E-score
38 | ATCTAATA | 0.246 E-score
39 | ATATGTGA | 0.289 E-score
40 | AGCACATA | 0.0492 E-score
41 | CGCGGAAC | -0.19 E-score
42 | ACTGTCTA | -0.114 E-score
43 | CTCACGCA | -0.0368 E-score
44 | CGAAGACC | -0.129 E-score
45 | CGAAACCC | -0.146 E-score
46 | CGCCTGGA | -0.192 E-score
47 | AAGGGCTA | -0.265 E-score
48 | ATTGGTAG | 0.38 E-score
49 | CCCTATTA | 0.0698 E-score
50 | TCAATAGA | 0.117 E-score

Row | Sequence | binding signal
51 | ACGATACC | -0.0465 E-score
52 | ACGCAGAC | -0.225 E-score
53 | AGAAAGAA | 0.144 E-score
54 | CACCGCAG | -0.123 E-score
55 | ATGTAGGG | 0.0367 E-score
56 | TCACCTAA | -0.0128 E-score
57 | AAGCCATT | -0.0115 E-score
58 | GCCCGAAA | -0.274 E-score
59 | CCAAAGCA | -0.217 E-score
60 | ATTAAGAC | -0.0482 E-score
61 | AGGGGGAA | 0.00464 E-score
62 | ACGCGAAA | -0.00202 E-score
63 | CCCCAGAC | -0.292 E-score
64 | CGAGCCCG | -0.123 E-score
65 | CCCTGCAG | -0.286 E-score
66 | AGAGGAGC | -0.189 E-score
67 | ATGACGAA | 0.0895 E-score
68 | CCGAACAC | -0.241 E-score
69 | CCCACACC | -0.0912 E-score
70 | CCTTGGCG | -0.177 E-score
71 | TCCTGTAA | 0.0459 E-score
72 | ACGCATGC | -0.111 E-score
73 | GACCTAGA | 0.0233 E-score
74 | CAATACGC | -0.0675 E-score
75 | AATCAACG | 0.0363 E-score

Row | Sequence | binding signal
76 | GCCATGAA | -0.31 E-score
77 | CCGAGGCA | -0.061 E-score
78 | CGTCGGTC | -0.1 E-score
79 | CGAACCCA | 0.00438 E-score
80 | AATAAAAT | 0.33 E-score
81 | GATTTTCC | -0.0139 E-score
82 | GTACTTAA | 0.314 E-score
83 | CTGCTGCA | -0.136 E-score
84 | GTTAAAAA | 0.158 E-score
85 | CAATGCGC | 0.055 E-score
86 | AGCCAAAA | -0.0673 E-score
87 | CTTTTACA | 0.116 E-score
88 | CAGTCACG | -0.0705 E-score
89 | TCAACTCA | -0.00658 E-score
90 | AAGTAGCC | 0.00315 E-score
91 | GGCATCTA | 0.084 E-score
92 | TACGCACA | 0.21 E-score
93 | AGTAACAC | 0.265 E-score
94 | GGCGCTTA | -0.0748 E-score
95 | AGTTGTGC | 0.0787 E-score
96 | TATACCGA | 0.186 E-score
97 | ATCAGAAA | 0.0239 E-score
98 | ACGAGTCC | -0.207 E-score
99 | AGGGCGGC | -0.386 E-score
100 | CATGGCAA | -0.0505 E-score

Row | Sequence | binding signal
101 | AGCCGATC | -0.169 E-score
102 | GCTGCCCA | 0.0455 E-score
103 | AGAAAGGC | -0.124 E-score
104 | ATTAGGTC | 0.152 E-score
105 | AATACTAG | 0.34 E-score
106 | CCACCCTC | -0.237 E-score
107 | AACCAGCA | 0.0878 E-score
108 | TACGGTAA | 0.302 E-score
109 | CCGTGCCC | -0.331 E-score
110 | CACGACTG | -0.00937 E-score
111 | CATCGCAG | -0.272 E-score
112 | GCCCTTGA | -0.305 E-score
113 | CGGTATTC | 0.238 E-score
114 | AGAGTGGA | -0.126 E-score
115 | TACGGGAA | 0.101 E-score
116 | GGACTGAC | -0.315 E-score
117 | CGCCGGAA | -0.152 E-score
118 | ATTCGTAC | 0.123 E-score
119 | AATTTAGT | 0.165 E-score
120 | CTGATAAA | 0.157 E-score
121 | CAGGCATA | -0.074 E-score
122 | ACTCGTCG | -0.0388 E-score
123 | CTTCATCC | -0.00446 E-score
124 | GTAAACTA | 0.364 E-score
125 | AATATACC | 0.353 E-score

Row | Sequence | binding signal
126 | CGCTGTCA | -0.169 E-score
127 | GATGGGGA | -0.101 E-score
128 | CAACCTCA | 0.00314 E-score
129 | CGTACCCA | 0.107 E-score
130 | CACGAGGC | -0.272 E-score
131 | TCGAAGCA | -0.0421 E-score
132 | TGCGGGAA | -0.161 E-score
133 | AACTGTGG | 0.0108 E-score
134 | GCGATCCC | -0.213 E-score
135 | AGTCAGCC | -0.112 E-score
136 | CGTATATA | 0.258 E-score
137 | ATTCCTAC | 0.168 E-score
138 | TTGGCAAA | -0.0942 E-score
139 | GGATCCTA | -0.119 E-score
140 | AGACCCCG | -0.258 E-score
141 | AACGGTAG | 0.286 E-score
142 | AGCACTAG | -0.0264 E-score
143 | AGGAATCC | -0.102 E-score
144 | AGGTTGGC | 0.0659 E-score
145 | ACTTTTTC | 0.225 E-score
146 | GAGGACAC | -0.0711 E-score
147 | AATGAAAC | -0.0633 E-score
148 | CATTAACC | -0.0128 E-score
149 | GCGCGGTA | 0.117 E-score
150 | AACCAAGC | 0.0549 E-score

Row | Sequence | binding signal
151 | AAAGGTGG | -0.264 E-score
152 | AAACCTCG | -0.0732 E-score
153 | AAAACTTC | 0.134 E-score
154 | GGATGCCC | -0.338 E-score
155 | AAGCGCAG | 0.0712 E-score
156 | TGATTCCA | 0.0212 E-score
157 | CCGAACGG | -0.212 E-score
158 | GTGCTGAA | 0.0378 E-score
159 | ACCGAAGT | -0.0364 E-score
160 | ATGACGCG | -0.0869 E-score
161 | GTCTAGCA | -0.0188 E-score
162 | CGGTACCC | -0.179 E-score
163 | GGGAGAGA | -0.106 E-score
164 | CTGATTAA | 0.165 E-score
165 | AATGAAGA | -0.000427 E-score
166 | GGAAAAAC | 0.0784 E-score
167 | CTGCTTAA | -0.0673 E-score
168 | GAGATGCC | -0.0569 E-score
169 | CAGAGGCA | -0.089 E-score
170 | AATTCCCC | 0.0648 E-score
171 | GTTTATTA | 0.235 E-score
172 | AAGATCTG | 0.0648 E-score
173 | AGAGTAGC | 0.0737 E-score
174 | GTCAAGAC | -0.155 E-score
175 | CAGCCTAA | -0.0373 E-score

Row | Sequence | binding signal
176 | ATGTGTGG | 0.0571 E-score
177 | CTGCCCTC | -0.285 E-score
178 | GTGATTGA | -0.0754 E-score
179 | ATGAGCTG | -0.0863 E-score
180 | AGGAGACT | -0.209 E-score
181 | CTGAATTA | 0.176 E-score
182 | CGACGGCG | -0.25 E-score
183 | AAGGAGCT | -0.074 E-score
184 | ACGGACAT | -0.0295 E-score
185 | ACTTGACA | 0.0993 E-score
186 | AATGACTG | 0.0506 E-score
187 | CAGTCTCC | -0.233 E-score
188 | AATATGAT | 0.213 E-score
189 | AAATGTCT | 0.109 E-score
190 | CCCAGAGA | -0.0676 E-score
191 | GATCTAGC | 0.218 E-score
192 | GCCCAAGA | -0.255 E-score
193 | ACTACTCC | 0.273 E-score
194 | CATCATCG | -0.141 E-score
195 | CGCTAACC | -0.133 E-score
196 | CTGAATTC | -0.15 E-score
197 | AGACCATG | -0.132 E-score
198 | CAGTTCCC | -0.138 E-score
199 | CAAGCCAA | -0.0364 E-score
200 | GATAACGA | 0.0698 E-score

Row | Sequence | binding signal
201 | AGTTCTAC | 0.386 E-score
202 | TCGCGCGA | 0.0974 E-score
203 | GGGAGGCA | -0.214 E-score
204 | AATCTTGA | -0.0166 E-score
205 | GTCCCTAA | -0.0476 E-score
206 | ATATACCA | 0.344 E-score
207 | AGCGACTG | -0.0115 E-score
208 | CCCGAGAG | -0.232 E-score
209 | CGTTAACG | 0.0189 E-score
210 | GTTATGTA | 0.292 E-score
211 | GGGCGAGA | -0.0841 E-score
212 | ACATGATA | 0.245 E-score
213 | ATCTTGGA | 0.0959 E-score
214 | AAGTCGCT | 0.00124 E-score
215 | AGAGGCTA | -0.118 E-score
216 | AGCTTTAA | 0.229 E-score
217 | AGGACAGG | -0.0962 E-score
218 | CGCGTCAA | -0.0156 E-score
219 | CGGATCAA | -0.0523 E-score
